Data: the supplement of paper PMC12632987
The full ranking holds about 4,500 sequences; the median of “median log2 fold change of GCK-ALFA target abundance (FLAG IP / Myc IP barcode read proportion)” is about 0.078, and the lowest 2% start at about -0.6. Some of the results follow.

B1: GBRAP_52_5882 (protein)
chain: SLEEAKKLLKEMIKAVAAGKEEEAKKIAKEIVEKFDDETIIEAVKELAEEIKSKSLEEAKAFYEAMELLAEVMEEMGRDPEVASLIEAIAGAALYEVEQK
B2: GBRAP_139_3742 (protein)
chain: SEMEKKVEEAAKKVAELKDDPEAVADYLTETIASVDEETAEKIARAAVEVLADLPVEERLALDDLILDKLEEAGVDEDKITIVEAELNGGLARHAYAEEL
B3: GBRAP_57_6474 (protein)
chain: SERLKKAEEYAEKALKAIEEGAPEEEILELVRKLAEQLSEESLRDVLLIADPSAEYDVSKEEAIEAIVALARKYLEAGDYEGLRRLVELLEGTAEMEHFE
B4: GBRAP_160_4509 (protein)
chain: SEKLEEIKKEIDEAREEIKREIEEGTVEEAIIVAAVELGEVIMELVEDESFSDEAEDAAAEIRDELVEELKRNKDASVEELKKIVDEKTEELKKTLKELS
B5: GBRAP_160_3990 (protein)
chain: EEKKKELLKEIEEIFKETYELAKGENPENRLTVVEVNMGEILLLAEESGILSEETIEKIDEILDETVEKVKANPNMTDEELKKLLDESLEKIKKIIEEEK
B6: GBRAP_125_3022 (protein)
chain: SKEELVEMLGAIAKALGFSEEDVEEIMRLAREHGLKGALIAIALALGEEELAELLEKLSEEEVAEVVKRLYEWLKAHPDATPEEVKEKLLELAKEAVEKK
B7: GBRAP_82_6869 (protein)
chain: KPVIVAEVVSMEPLTPEQMAEIEKVAEELKKEAAAKGIELKVIVADASDEAMEEMDKKLREIKKKYPDAVVVTGAVAKAEDVPEMLRAVADEALDEALER
B8: GBRAP_52_5950 (protein)
chain: ALEEALALLREALAAVLAGKEEEARAILRELVERFDLETIRAAAVALAKSLAGADDAELEAAVRLFDMLEDVLIEAGVPEEEAELIRGDAEAALAKAHAA
B9: GBRAP_53_6421 (protein)
chain: SSARIERLIAEIRAATEAATKADAEERKKLAEEIGALFAELKAAGMPDEEITALAEEVARKLKAAGADVSVLVALADTFAALGLDDATAAFGEVIVEDLE
B10: GBRAP_80_6758 (protein)
chain: SRAELEAALAELKALDPELGAELAAVLEEAIAAGVSVETAAAAVKALVELYKLDPEKARELARELIAELREAIAAGDVEGAEAALIDAESDALVEVEELE
B11: GBRAP_128_3221 (protein)
chain: AAEAAVARVRELLEAIKTADAATRKALAAELAALVASQPVDVAEAMAEVIEELAPELSEEDLEVLMDAFEAAARATSDDVALVLTEMAIIMGEEILELEE
B12: GBRAP_125_3091 (protein)
chain: EEETLREALRRLALAMGFSEEDAELLAELAAESSVRQALYALFAAEGYEEAADAVARLTEEQAREVLLRVSEWLKEHPNASKEEVVAKVLEAAEEALAAA
B13: GBRAP_184_5206 (protein)
chain: EVKEFEIEVENEEELKKKLEELLKELEGFKGTVYIIVKAPEFTEEMAKILLEKVKEIKEKGYATNIVVEIEGEVSEEVEDLLLEGAREIGANVVIALSEE
B14: GBRAP_26_5484 (protein)
chain: KEREILDELRARVREILADEPAEVQAAVVAEAEDRLIEFAEVVEENIDDEEKIKEAKEKALKELREFLEELGVPKEKQEKVVKALEEALKRVEEAIKKEA
B15: GBRAP_11_2640 (protein)
chain: KKEKYKKALELAEKAIELLDKLLKEGVDNKELWKEIEKLLKELKELVKEIPDKALQKEVEIALELLEEAKKDKENAEEYVKLLRNALRVIKAELEELIEE
B16: GBRAP_53_6390 (protein)
chain: SSARLEALIAELEALIEALKTADAAEAVALAKRARALLLELARAGLPEERLVELVRRFAEAAAPKPELRPVLIALAQELAALGRDEAAAEVAEALVEELE
B17: GBRAP_160_4324 (protein)
chain: KEELEKLKKEIREIAEEAIKMIEGESAEQRITIVKVALGEIILEVEENEAVSEETEEKVAEIADEAEAYLDANPDLSEEEVIALLREAEEKILKILEEEA
B18: GBRAP_53_6415 (protein)
chain: AAARIAALKAEILRLADEAAAADEETRARLVEEIARALAEAAAAGLPAAELTALAREVADRLAAAGAPDSDLVTLANALAALGLEEATAAVAERAVEELE
B19: GBRAP_52_6305 (protein)
chain: SAARMRALAEELVALTRAGDEEGVRALARRIAATLSDEELLALAEELAALAATWDEAELDRLMRMLDIWEDVAEEEGVDPGVIARARGIIVTALYAAELA
B20: GBRAP_122_2945 (protein)
chain: AATAARLEALVAAMVAALEAGDEERLAALARELVRLFETVSPEQARAAVERLLERVAGDEEAKERALRALLAAFTENEPLTPAQEAAADVVAEEFDKLSE
B21: GBRAP_160_4058 (protein)
chain: EEKKKELLELVEEARELILETIDEDGVDAAIVVAEGEFGAVIMEAEESEEASEELPDELAKIRDDLVAALKAAKDASPEEQKAIVEKAAEEAKKKIEELM
B22: GBRAP_11_2846 (protein)
chain: EKEKLEEIAKKAEEVEKLLDELIAAGPDDEELWKKVREKLEELKKLVKEHLDESEQELAELAEEELERARADPENALHHLELARAFVRTLKGQVLLKIEE
B23: GBRAP_78_6584 (protein)
chain: EKEELYDKIVEELDRAHELAQQLPPELRNEVLAELTEALSDLYDAETEGNEEESLEEAIRHLERALAIAEAADHPVAPALAAALRAAKELAEELLKLVKE
B24: GBRAP_184_5127 (protein)
chain: ELVRRAVEATDAEELIRKAREVVEEAAARGLRLDLAVFAENMSVEEIIRVIEALGEIRRAHPEVAVTLVVEDELSEEEIDRLVEAADRNGVRLVLAIKEE
B25: GBRAP_166_4872 (protein)
chain: SMEEKLKEAKKKILELIKEAKELDAEERTEKYIEIGEIIKELKEEGASEEEILELIREIFKAAKEEGLDVRLLAGIIINVVGFDEETIDKVEKILEEVLK
B26: GBRAP_11_2863 (protein)
chain: KKEEAEKAAKLAEEAIKVLDELLKEGVDNEELRKKLKELLEELQKLVEENFDEDEKELVEIAIENFEKAQKDPANAEEHIQNALAALRVLQGQLLLRIDE
B27: GBRAP_9_7171 (protein)
chain: DKEKKEKIKKVVLEAFEEILKVVPEEKKPLVEKAKEKAKKELEALLKDPNTTLEEFKEKAKKLLEELVKEMKEAVDPETAAAVEAIALTAIEEIDEILEE
B28: GBRAP_35_5514 (protein)
chain: STDDTIAEMLESYIEDLTLAVPELDPETLHTLTLGAAEMARELIEDNKNNKEIVKRIKESLERLLEALEARGLDDPLLREAAERVREVIEYAEEVLKEIE
B29: GBRAP_184_5357 (protein)
chain: EVEHLSVTVTTEAEAREKLAEAAARIRASGRPTVLVVTLENADLETVETAARLLAELRAEGLIERGIIDVPDDRSEEEIDKMVAIADKYGVDLVVAIPEE

Each binder was assayed against GABARAP, O95166 (assay: median log2 fold change of GCK-ALFA target abundance (FLAG IP / Myc IP barcode read proportion) (log2 ratio); each designed protein is fused to an ALFA-tag nanobody in HEK293 cells to bring the named protein to FLAG-tagged glucokinase (GCK); Myc marks an untargeted standard; higher = target protein stabilised (more abundant)). Details: target protein: 3xFLAG-MCP-GCK-ALFA reporter; HEK293 landing pad (RPLP).
Outline: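 HEK293 landing-pad cells received a recombined binder library fused to the ALFA nanobody and were induced with 2 μg mL^−1 doxycycline, then transfected with a plasmid encoding a FLAG-tagged target and a Myc-tagged standard. Lysates were collected after 48 h for anti-FLAG and anti-Myc immunoprecipitation, and the circular RNA barcodes were reverse transcribed, amplified and sequenced. Target abundance for each binder is the median log2 ratio of FLAG to Myc barcode read proportions. Barcodes had to reach a proportion of at least 10^−7 in both replicates, each binder needed at least 3 barcodes per replicate, a pseudocount of 10^−6 was applied, and the two replicates were pooled.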

GABARAP, O95166, sequence (O95166 whole entry, the tested form may be a part): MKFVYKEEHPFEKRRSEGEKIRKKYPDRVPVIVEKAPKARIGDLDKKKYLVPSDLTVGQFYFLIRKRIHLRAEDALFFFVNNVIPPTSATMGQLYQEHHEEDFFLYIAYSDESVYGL

Q: How did the “median log2 fold change” value turn out when B1 was run?
A: Its value is 0.174.

Q: How did the “median log2 fold change” value turn out when B2 was run?
A: The value was 0.187.

Q: B3 was tested. Which “median log2 fold change” value did it give?
A: Its value is 0.242.

Q: With B4 as the binder, how does the “median log2 fold change” value read?
A: The value was 0.149.

Q: For B5, which “median log2 fold change” value is on record?
A: The value was -0.0665.

Q: How did the “median log2 fold change” value turn out when B6 was run?
A: Its value is 0.0394.

Q: For B7, which “median log2 fold change” value is on record?
A: Its value is 0.0109.

Q: How did the “median log2 fold change” value turn out when B8 was run?
A: Its value is -0.0682.

Q: Which “median log2 fold change” value does the source give for B9 here?
A: Its value is 0.196.

Q: How did the “median log2 fold change” value turn out when B10 was run?
A: The value was 0.0397.

Q: With B11 as the binder, how does the “median log2 fold change” value read?
A: Its value is 0.0438.

Q: B12 was tested. Which “median log2 fold change” value did it give?
A: The value was 0.145.

Q: How did the “median log2 fold change” value turn out when B13 was run?
A: The value was -0.0683.

Q: Which “median log2 fold change” value does the source give for B14 here?
A: Its value is 0.267.

Q: How did the “median log2 fold change” value turn out when B15 was run?
A: The value was 0.233.

Q: Which “median log2 fold change” value does the source give for B16 here?
A: Its value is 0.0029.

Q: Which “median log2 fold change” value does the source give for B17 here?
A: The value was -0.358.

Q: With B18 as the binder, how does the “median log2 fold change” value read?
A: Its value is 0.232.

Q: How did the “median log2 fold change” value turn out when B19 was run?
A: The value was 0.0566.

Q: For B20, which “median log2 fold change” value is on record?
A: The value was 0.226.

Q: B21 was tested. Which “median log2 fold change” value did it give?
A: The value was 0.148.

Q: With B22 as the binder, how does the “median log2 fold change” value read?
A: The value was 0.197.

Q: How did the “median log2 fold change” value turn out when B23 was run?
A: The value was -0.203.

Q: How did the “median log2 fold change” value turn out when B24 was run?
A: Its value is 0.183.

Q: For B25, which “median log2 fold change” value is on record?
A: Its value is 0.402.

Q: With B26 as the binder, how does the “median log2 fold change” value read?
A: The value was 0.201.

Q: For B27, which “median log2 fold change” value is on record?
A: The value was 0.342.

Q: With B28 as the binder, how does the “median log2 fold change” value read?
A: The value was -0.908.

Q: How did the “median log2 fold change” value turn out when B29 was run?
A: The value was -0.0153.
